# Results reported in PubChem BioAssay AID485344 (National Center for Advancing Translational Sciences (NCATS), 2010).
# Hit rate of the full screen: of about 340,000 compounds, about 6,900 (2%) were called active. No stated cut-off is given here; in the data, active means inhibition above about 30%; inactive means below that, where a call was filed. The list shows a part of the results, in another mix than the full data. The source gives no active or inactive call for entries shown without one.
# Biological target: D(2) dopamine receptor (Homo sapiens) (UniProt P14416)
# Assay: HTS Assay for Allosteric Antagonists of the Human D2 Dopamine Receptor: Primary Screen for Antagonists; further: 0% is about no effect
# Details: HEK293 TREx D2 cells, calcium flux, dopamine EC80; at 10 µM; stronger effect = higher value
# Procedure, shortened: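 Read-out: kinetic calcium fluorescence (1 cycle/s) in inducible HEK293 T-REx D2 cells after an EC80 dopamine addition that followed 180 s compound preincubation. Loss of the dopamine response indicates antagonism.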
# Chain of UniProt P14416 (P14416 whole entry, looked up): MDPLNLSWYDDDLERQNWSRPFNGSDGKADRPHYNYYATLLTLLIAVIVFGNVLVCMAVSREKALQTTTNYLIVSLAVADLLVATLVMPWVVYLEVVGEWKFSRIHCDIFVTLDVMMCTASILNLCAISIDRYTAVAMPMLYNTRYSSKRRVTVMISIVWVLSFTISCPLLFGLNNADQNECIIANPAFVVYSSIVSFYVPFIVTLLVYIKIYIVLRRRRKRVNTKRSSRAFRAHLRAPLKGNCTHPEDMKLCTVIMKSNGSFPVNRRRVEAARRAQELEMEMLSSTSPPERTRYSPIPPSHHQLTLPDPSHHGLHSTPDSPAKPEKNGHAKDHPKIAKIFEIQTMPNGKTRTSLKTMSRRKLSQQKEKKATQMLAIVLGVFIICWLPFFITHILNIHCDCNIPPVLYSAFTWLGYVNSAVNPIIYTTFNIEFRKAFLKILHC
row,SMILES,inhibition
1,COc1ccc(N2CCN(C(=O)c3cccc(-n4c(C)nc5cccnc54)c3)CC2)cc1,-1.52%
2,COc1cc2cc(CNc3ccccc3)c(=O)n(CC(=O)Nc3ccccc3)c2cc1OC,1.79%
3,CCCNS(=O)(=O)c1ccc2nc(NC(=O)c3ccc(F)cc3)sc2c1,7.19%
4,Cc1ccc2nc(N3CCN(c4ccccc4)CC3)c3nnnn3c2c1,1.04%
5,O=C(NCCC1=CCCCC1)c1ccc2c(c1)N(Cc1ccccc1F)C(=O)c1ccccc1S2=O (stereo not drawn),-11.4%
6,CCc1cccc(-n2c(=O)c3cccnc3n2CC(=O)NCc2ccccc2)c1,-4.55%
7,CCn1nnc2cc(C(=O)Nc3ccc(Cl)cc3C)ccc21,5.82%
8,Cc1nc(-c2ccc(S(=O)(=O)Nc3ccc(C#N)cc3)cc2)co1,12.6%
9,COC(=O)c1ccc(NC(=O)CSc2nc(C)cc(C)c2C(=O)Nc2ccccc2)cc1,-16.1%
10,O=C(O)c1ccc(N2CCCS2(=O)=O)cc1,active: 34.3%
11,CCOc1ccc(/C=C/C(=O)Nc2sc3c(c2C(=O)OC)C(C(=O)OC)CC3)cc1 (stereo not drawn),5.17%
12,COc1cc(NS(=O)(=O)c2cnc(N)nc2)cc(OC)c1,-2.59%
13,CCOc1ccccc1CNc1ccc2cc(S(=O)(=O)N3CCC(C)CC3)ccc2n1,2.53%
14,COc1ccc(-c2nn3c(=O)cc(CN4CCN(C(=O)c5ccc(OC)c(OC)c5)CC4)nc3s2)cc1,4.18%
15,COc1ccc(-c2noc(N(c3nc(-c4ccc(OC)c(OC)c4)no3)c3ccccc3OC)n2)cc1OC,-2.52%
16,CCOc1ccccc1NC(=O)c1ccc2c(Cl)c3c(nc2c1)CCC3,17.1%
17,CC(C)(C)c1ccc(C(=O)Nc2ccc3c(c2)CCCN3C(=O)c2cccs2)cc1,13.1%
18,CCc1ccc(NC(=O)Cn2c(=O)n(CCCCC(=O)NCc3ccc4c(c3)OCO4)c(=O)c3ccccc32)cc1,8.05%
19,CC(=O)c1cc(-c2ccccc2)n(CCC(=O)NCc2ccc(C)cc2)c1C,-7.2%
20,CN(C1CCCC1)C1CCN(C(=O)CNC(=O)/C=C/c2ccc(F)cc2)CC1,active: 84.8%
21,CCOc1ccccc1Nc1sc(C(=O)c2ccccc2)c(N)c1C(=O)Nc1ccccc1,9.73%
22,Cc1nnc(N2CCC(C(=O)N3CCCCC3)CC2)c2nn(-c3ccc(Cl)cc3)c(C)c12,-7.22%
23,Cc1ccc(NC(=O)c2nc(S(C)(=O)=O)ncc2N(Cc2ccco2)Cc2cccs2)c(C)c1,15.8%
24,Cc1ccc(OCC(=O)Nc2nnc(S(=O)(=O)N3c4ccccc4CC3C)s2)cc1 (stereo not drawn),15.5%

row,SMILES,inhibition
1,Cc1ccc(C(=O)Nc2ccc(S(=O)(=O)N3CCC(c4nc5ccccc5s4)CC3)cc2)cc1,-6.46%
2,Cc1ccc(NC(=O)CSc2nc(=O)n(CCN3CCOCC3)c3c2CCC3)c(C)c1,-25.1%
3,CC(=O)N1CCc2nc3sc(C(=O)c4ccc(F)cc4)c(N)c3c(C(F)(F)F)c2C1,-4.69%
4,CC(=O)Nc1ccc(NC(=O)C(C)OC(=O)c2ccccc2C(=O)c2ccc(Cl)c([N+](=O)[O-])c2)cc1 (stereo not drawn),active: 36.3%
5,CC(=O)c1cccc(NC(=O)c2nc(-c3ccccc3)n(-c3cccc(Cl)c3)n2)c1,-21.3%
6,CCc1ccc(NC(=O)C(=O)NCC(c2cccnc2)N2CCN(c3ccc(F)cc3)CC2)cc1 (stereo not drawn),-23.2%
7,Cc1ccc(Cl)cc1NC(=O)Nc1nnc(N(C)Cc2ccccc2)s1,15.3%
8,Cn1c(=O)c2c(SCC(=O)Nc3ccccc3C(F)(F)F)nc(C3CCCC3)nc2n(C)c1=O,8.52%
9,COc1ccc(-c2cc(C)no2)cc1S(=O)(=O)N1CCc2ccccc21,3.84%
10,Cc1ccc(CN(C(=O)c2ccccc2)c2ccccn2)o1,20.9%
11,O=C(O)CCCCn1c(SCC(=O)Nc2ccccc2C(F)(F)F)nc2ccsc2c1=O,-25.8%
12,CCCCn1cc(S(=O)(=O)c2ccc(OC)cc2)c(=O)c2cc(CC)ccc21,0.248%
13,CNC(=O)C1CCC(Cn2c(=O)c3sccc3n(CC(=O)Nc3ccc(C)c(C)c3)c2=O)CC1 (stereo not drawn),5.66%
14,COc1ccc(CCNC(=O)C2CCC(CNS(=O)(=O)c3ccc(C)cc3)CC2)cc1OC (stereo not drawn),17.8%
15,CCOCCCn1c(SCC(=O)OCC)nc2c(sc3ccccc32)c1=O,-21.9%
16,COCCNC(=O)CSc1nc(-c2cc(OC)c(OC)c(OC)c2)[nH]c1-c1ccc(Cl)cc1,18.5%
17,Cc1cccc(C(C)C)c1NC(=O)C1CCCN1S(=O)(=O)c1cccc2nsnc12 (stereo not drawn),-7.87%
18,CCOc1cccc(N2C(=O)CC(NNC(=O)c3ccc(Br)o3)C2=O)c1 (stereo not drawn),active: 38.1%
19,CCC1CN(C(=O)N2CCC(C(=O)NCCc3ccccc3Cl)CC2)c2cc(C)ccc2O1 (stereo not drawn),23.6%
20,CCCC(O)c1nc2ccccc2n1Cc1ccccc1OC (stereo not drawn),3.62%
21,COc1cc(NC(=O)CN2c3ccccc3S(=O)(=O)c3ccccc32)cc(OC)c1,11.6%
22,Cc1ccc(Nc2nnc(-c3ccc(C)c(S(=O)(=O)N4CCN(C)CC4)c3)c3ccccc23)cc1,-7.49%
23,Cc1ccc(C)c(NC(=O)c2cc(S(=O)(=O)N3CCCc4ccccc43)ccc2F)c1,-6.37%
24,CC(C)=N/N=C1/NC(=O)C(CC(=O)Nc2cc(Cl)ccc2C)S1 (stereo not drawn),active: 46.1%

row,SMILES,inhibition
1,CCOC(=O)c1ccc(NS(=O)(=O)c2ccc(-c3cc(C)no3)cc2)cc1,-0.949%
2,Cc1cc(C)c(OCC(=O)N(Cc2ccco2)Cc2ccco2)c(C)c1,4.91%
3,COc1ccc(Cn2ccc3nc(C)c(C(=O)Nc4cc(C)cc(C)c4)cc3c2=O)cc1,17.6%
4,Cc1nc2ccccc2c(=O)n1-c1ccc(NC(=O)c2cccc([N+](=O)[O-])c2)cc1,-1.44%
5,CSc1ncc(C(=O)Nc2c(C)cccc2C)c(-c2ccccc2)n1,15.1%
6,COc1ccccc1CCNC(=O)c1ccc(-c2nc(CSc3ccc(C)cc3)c(C)o2)cc1,-1.25%
7,CCCCNC(=O)C(Cc1ccccc1)NS(=O)(=O)c1ccc2c(c1)c(=O)n(C)c(=O)n2C (stereo not drawn),5.87%
8,CCn1c(=N)c(C(=O)NCc2ccccc2)cc2c(=O)n3cc(C)ccc3nc21,1.2%
9,CCC1CN(C(=O)NCc2ccc(C)cc2)c2ccccc2O1 (stereo not drawn),-18.9%
10,CC(C)c1ccc(N2C(=O)CS(=O)(=O)C23C(=O)N(Cc2cccc(F)c2)c2ccccc23)cc1 (stereo not drawn),13.6%
11,CCC(C)NC(=O)Cn1ccc2cc(S(=O)(=O)N3CCCCC3)ccc21 (stereo not drawn),7.71%
12,Cc1cccc(N2CCN(C(=O)CN3C(=O)COc4ccc(S(=O)(=O)N5CCCCCC5)cc43)CC2)c1C,-10.5%
13,CCCCOc1cccc(C(=O)Nc2cccc(-c3nc4ncccc4o3)c2C)c1,11.2%
14,Cc1ccc(NC(=O)C2CCCN(c3ncnc4onc(-c5ccc(F)cc5)c34)C2)c(Cl)c1 (stereo not drawn),6.47%
15,O=C(CSc1nccn1C1CCCC1)Nc1ccc(C(F)(F)F)cc1,20.8%
16,CC(C)CCN1C(=O)c2ccccc2CC1(C)C(=O)NC1CCC(C)CC1 (stereo not drawn),-5.27%
17,CC(C)c1ccc(-c2nc(C(N)=O)c3c(n2)n(-c2ccc4c(c2)OCO4)c(=O)n3C)cc1,-9.08%
18,O=C(Nc1cccc(F)c1)[C@H](CSCc1ccccc1)N1Cc2ccccc2C1=O,-18.5%
19,CCOc1ccc(NC(=O)Cn2cc(S(=O)(=O)NC)c(S(=O)(=O)NC)c2)cc1,0.615%
20,COc1ccc(NC(=O)C2CCN(S(=O)(=O)c3ccc4[nH]c5c(c4c3)CCCCC5)CC2)cc1,3.2%
21,CCCCCSc1nnc(-c2ccc(Br)cc2)o1,-12.6%
22,CC1CCCN(CCCNC(=O)c2coc3nc4ccccc4nc23)C1 (stereo not drawn),active: 32.6%
23,Cc1ccc(Cl)cc1-n1c(=O)c2sc3ccccc3c2n(Cc2ccccc2)c1=O,7.12%
24,CCOc1cc(-c2nnc(SCC(=O)NC3CCCC3)nc2-c2ccc(OC)c(OCC)c2)ccc1OC,12.3%

row,SMILES,inhibition
1,CCOc1ccc(-n2ccnc2SCC(=O)Nc2nc3ccc(C)cc3s2)cc1,2.36%
2,COc1cccc(NC(=O)N2C3CCCC2CC(NC(=O)C2CC2)C3)c1 (stereo not drawn),active: 34.1%
3,Cc1nn(-c2ccccc2)c2c1N(CC(=O)N1CCN(c3ccc(F)cc3)CC1)C(=O)CS2,3.58%
4,CC1(C)C(=O)N(CC(=O)Nc2cccc(F)c2)c2ccc(S(=O)(=O)N3CCCCC3)cc21,20.2%
5,COc1cccc2cc(C(=O)Nc3ccc(F)c(F)c3)c(=O)oc12,5.35%
6,O=C(Cn1c(=O)n(Cc2cccs2)c(=O)c2cccnc21)Nc1ccc(F)cc1,14.7%
7,CCOc1ccc(NC(=O)Cn2c(=O)n(-c3ccccc3)c(=O)c3ccc(C(=O)NCc4ccc5c(c4)OCO5)cc32)cc1,6.15%
8,Cc1ccccc1S(=O)(=O)Cc1ccc(C(=O)NC2CCC(C)CC2)o1 (stereo not drawn),-7.81%
9,CC(C)NC(=O)CN1C(=O)C(C)(C)Oc2ccc(C(=O)NC3CCCCC3)cc21,active: 31.5%
10,Cc1ccc(CNC(=O)C2CCN(S(=O)(=O)c3ccc4[nH]c(=O)ccc4c3)CC2)cc1,-4.35%
11,CCC(C)NC(=O)CSc1nc2cc3c(cc2c(=O)n1CCCCCC(=O)NCc1ccc2c(c1)OCO2)OCO3 (stereo not drawn),14.7%
12,Cc1cc(-c2ccc(C)c(S(=O)(=O)NCCc3ccc(S(N)(=O)=O)cc3)c2)on1,-0.284%
13,CC(C)c1ccc(NS(=O)(=O)c2ccc3[nH]cc(C(=O)NCC4CCCO4)c(=O)c3c2)cc1 (stereo not drawn),0.036%
14,CCOc1ccc2nc(N3CCCC(C(=O)Nc4ccc(OC)c(Cl)c4)C3)sc2c1 (stereo not drawn),1.07%
15,CCN(CCCC(=O)c1ccc(F)cc1)CCc1ccccc1,active: 102%
16,CN(C)S(=O)(=O)c1ccc2c(c1)N(CC(=O)Nc1ccc(F)cc1)C(=O)CS2,2.01%
17,c1ccc(Cn2nnnc2C(c2cccs2)N2CCSCC2)cc1 (stereo not drawn),active: 32.9%
18,Cc1ccc(Cn2c(SCC(=O)NCc3ccccc3Cl)nc3ccsc3c2=O)cc1,-9.15%
19,Fc1ccc(Nc2nc(SCc3ccccc3F)nc3ccccc23)cc1,12%
20,CCOC(=O)c1cc2c(=O)n3ccccc3nc2n(Cc2ccco2)c1=NC(=O)c1cccc(F)c1,-15.1%
21,COc1cc(NC(=O)CCCc2nnc3n(CC(C)C)c(=O)c4sccc4n23)cc(OC)c1,10.8%
